One test has as its target T1, M2 WT mAChR (Homo sapiens, UniProt P08172).
T1 construct: expressed in transfected cells; host or cells: CHO FlpIn
T1 sequence (P08172 1-466): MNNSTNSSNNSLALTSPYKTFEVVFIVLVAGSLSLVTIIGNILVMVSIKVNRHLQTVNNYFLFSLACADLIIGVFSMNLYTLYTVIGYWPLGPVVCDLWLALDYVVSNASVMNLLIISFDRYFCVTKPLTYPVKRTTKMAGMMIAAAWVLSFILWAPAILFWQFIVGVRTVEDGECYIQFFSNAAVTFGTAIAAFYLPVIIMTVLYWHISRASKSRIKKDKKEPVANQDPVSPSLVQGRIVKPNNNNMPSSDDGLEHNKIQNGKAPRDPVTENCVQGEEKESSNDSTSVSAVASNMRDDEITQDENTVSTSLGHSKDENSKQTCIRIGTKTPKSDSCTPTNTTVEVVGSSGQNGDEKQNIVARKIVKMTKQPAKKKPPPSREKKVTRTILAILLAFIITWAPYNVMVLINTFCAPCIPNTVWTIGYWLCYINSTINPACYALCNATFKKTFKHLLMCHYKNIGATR
The test is described as follows: BRET TRUPATH GoA activation (G-protein dissociation) assay. Type of test: cell-based. As to conditions: T=6min, listed as Ach. The method, then:
(§1) Cells were seeded at 20,000 cells per well into 96-well flat-bottom white culture plates and grown for 4 h. Plasmid DNA (20 ng per well of Gα, Gβ and Gγ at a 1:1:1 ratio) and linear polyethylenimine were added to the cells in a 1:6 ratio. To allow for protein expression, cells were then incubated (37 °C, 5% CO2) for 48 h before the measurement of agonist activity. […] The initial 4 min of measurement was considered baseline counts before ligand or vehicle addition, with BRET readings every 2 min for a further 8 min following drug or vehicle addition.
(§2) Concentration–response curves were fitted to a three-parameter logistic equation to derive ligand potency (pEC50) estimates.
(§3) Data was analyzed using the operational model of agonism to quantify the efficacy (Logτ) of each agonist in each cell line, and subsequently corrected for receptor expression level differences between cell lines (Logτc), using the M2 WT as reference. […] Source data
A general note: In BRET a luciferase serves as donor, and the signal depends on an acceptor being close.

The next test concerns the target T2, M4 WT mAChR (Homo sapiens, UniProt P08173).
T2 construct: expressed in transfected cells; host or cells: CHO FlpIn
T2 sequence (P08173 1-479): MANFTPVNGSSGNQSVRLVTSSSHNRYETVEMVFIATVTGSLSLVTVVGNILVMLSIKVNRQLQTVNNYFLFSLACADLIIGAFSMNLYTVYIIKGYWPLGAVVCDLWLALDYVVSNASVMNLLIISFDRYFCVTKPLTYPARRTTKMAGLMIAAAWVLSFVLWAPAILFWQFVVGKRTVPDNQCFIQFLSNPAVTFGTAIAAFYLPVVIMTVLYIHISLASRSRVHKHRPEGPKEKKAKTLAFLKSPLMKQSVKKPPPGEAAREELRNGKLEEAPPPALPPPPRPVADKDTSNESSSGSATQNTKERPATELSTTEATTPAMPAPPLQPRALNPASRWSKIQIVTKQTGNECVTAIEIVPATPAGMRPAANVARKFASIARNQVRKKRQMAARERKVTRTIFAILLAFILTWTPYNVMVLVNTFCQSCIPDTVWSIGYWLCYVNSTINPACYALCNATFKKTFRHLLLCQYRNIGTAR
The test is described as above. As to conditions: T=6min, listed as Ach. Type of test: cell-based. The method, then: as §1, §2, §3

Setting [1] is: Log[Ligand] (M) -5, individual experiments.
The mark [2] stands for this setting: Log[Ligand] (M) -6, individual experiments.
The mark [3] stands for this setting: Log[Ligand] (M) -7, individual experiments.
The mark [4] stands for this setting: Log[Ligand] (M) -8, individual experiments.

Where “and” joins values, the source holds several entries; their conditions need not be identical. Equal values may be shown once. Further values from the same series stand in other lists.

Take `CC(=O)OCC[N+](C)(C)C` [Acetylcholine, acetylcholine]: the GoA activation response at M2 WT mAChR (setting [1]) was 95.9446 % Emax ACh and 100.183 % Emax ACh and 98.1367 % Emax ACh and 97.8085 % Emax ACh and 98.9826 % Emax ACh; on M2 WT mAChR (setting [2]) it was 93.4511 % Emax ACh and 95.89 % Emax ACh and 95.9729 % Emax ACh and 95.7061 % Emax ACh and 95.6761 % Emax ACh; on M2 WT mAChR (setting [3]), 66.0014 % Emax ACh and 59.0466 % Emax ACh and 58.181 % Emax ACh and 63.3213 % Emax ACh and 68.6187 % Emax ACh; on M2 WT mAChR (setting [4]) it was 4.731 % Emax ACh and 12.001 % Emax ACh and 11.0991 % Emax ACh and 13.8159 % Emax ACh; on M4 WT mAChR (setting [1]), 98.3771 % Emax ACh and 95.2045 % Emax ACh and 102.476 % Emax ACh and 99.6093 % Emax ACh and 99.0807 % Emax ACh; at M4 WT mAChR (setting [2]), 88.1919 % Emax ACh and 95.0934 % Emax ACh and 93.3247 % Emax ACh and 93.8992 % Emax ACh and 92.3509 % Emax ACh. Also, the GoA activation response was 50.9085 % Emax ACh and 87.1687 % Emax ACh and 56.2623 % Emax ACh and 65.2872 % Emax ACh and 66.1777 % Emax ACh at M4 WT mAChR (setting [3]); 20.0071 % Emax ACh and 21.9927 % Emax ACh and 30.4947 % Emax ACh and 17.2765 % Emax ACh and 22.5206 % Emax ACh at M4 WT mAChR (setting [4]).

The record behind these values is paper PMC10299909, “Structural basis of efficacy-driven ligand selectivity at GPCRs” (Nature Chemical Biology, 2023).
